Hit rate of the full screen: of about 45,000 compounds, about 65 (0.1%) were called active. Calls follow the shape of the dose curve; as a rule, active = well fitted activation curve with a large enough effect; inconclusive = small, poorly fitted or top-dose-only effect; inactive = no such curve, though single readings can be large or run the other way. The list shows a part of the results.
molecular target: Galactocerebrosidase (Homo sapiens) (UniProt P54803); experiment: A Novel Cell-Based Assay to Identify Small Molecules for B -Galactocerebrosidase; conditions: 145M-Twi-hGALC-G270D cells, HMU-beta-Gal fluorescence, 48 h; series mostly up to 57.5 µM; activation: at the top concentration; also: 0% is about no effect; nearly all actives have a fitted effect of over 65% in size
Sequence of UniProt P54803 (P54803 whole entry, looked up): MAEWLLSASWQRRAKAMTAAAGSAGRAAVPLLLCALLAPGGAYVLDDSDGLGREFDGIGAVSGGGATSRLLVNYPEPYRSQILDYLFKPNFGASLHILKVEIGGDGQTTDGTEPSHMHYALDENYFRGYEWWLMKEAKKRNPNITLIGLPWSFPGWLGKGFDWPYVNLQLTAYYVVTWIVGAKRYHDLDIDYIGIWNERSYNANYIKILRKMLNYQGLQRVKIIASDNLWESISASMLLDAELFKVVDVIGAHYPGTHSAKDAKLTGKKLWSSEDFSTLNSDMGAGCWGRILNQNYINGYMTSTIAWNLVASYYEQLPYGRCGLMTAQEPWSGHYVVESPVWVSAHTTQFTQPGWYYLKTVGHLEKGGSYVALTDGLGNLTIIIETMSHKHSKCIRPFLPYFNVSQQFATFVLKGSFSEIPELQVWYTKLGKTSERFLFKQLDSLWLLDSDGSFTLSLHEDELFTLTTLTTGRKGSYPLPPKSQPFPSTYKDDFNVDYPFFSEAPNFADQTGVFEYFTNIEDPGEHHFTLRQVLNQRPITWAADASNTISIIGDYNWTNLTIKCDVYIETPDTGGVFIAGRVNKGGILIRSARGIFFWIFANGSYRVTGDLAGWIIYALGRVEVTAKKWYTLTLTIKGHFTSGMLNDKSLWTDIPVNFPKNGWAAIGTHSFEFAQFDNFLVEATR
In short: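 qHTS, 1536-well; 145M-Twi-hGALC-G270D cells (WT line also made) in DMEM/F12 + 10% FBS; compound incubation on live cells; HMU-β-gal 0.1 mM final, pH 5.2, NaTC; carbonate stop; fluorescence increase = enhanced residual activity.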

activation, inactive:
O=C(CSc1nccn1-c1ccc(Cl)cc1)Nc1cccc2ccccc12 -6.61%
C/C(=C(\CCO)SS/C(CCO)=C(\C)N(C=O)Cc1cnc(C)nc1N)N(C=O)Cc1cnc(C)nc1N -5.43%
COC(=O)c1ccc(NS(=O)(=O)c2c(C)nc3sccn3c2=O)cc1 -3.38%
COc1cccc(-n2ccnc2SCC(=O)Nc2ccc(Cl)c(Cl)c2)c1 -17.3%
COc1ccc(CNC(=O)C(C)Sc2nc(-c3ccccc3)cc(C(F)(F)F)n2)cc1 (configuration not stated) -2.28%
O=C1c2ccccc2C(=O)C1c1ccccc1 -9.96%
CCOc1cc(C(=O)NCc2ccc3c(c2)CCN3C(=O)c2ccc(F)cc2)cc(OCC)c1OCC -14.7%
O=C(NC1CCCC1)c1ccc(CSc2nc3ccncc3n2Cc2cccc(F)c2)cc1 -11.1%
CCCCOc1ccc(C(=O)Nc2ccc3oc(-c4cccnc4)nc3c2)cc1 -18.8%
COc1ccc(OCC(=O)N2CCC(c3nc4ccccc4s3)CC2)cc1 -8.97%
O=C(Cn1ccnc1[N+](=O)[O-])NCc1ccccc1 -6.99%
CCc1ccccc1NC(=O)C1CCN(S(=O)(=O)c2ccccc2)CC1 13.5%
CC(C)OCCCNC(=O)c1cn(C)c2ccc(S(=O)(=O)N3CCCCCC3)cc2c1=O -10.7%
Cc1cccc(C(=O)Nc2ccc(-c3nc4ncccc4o3)cc2C)c1 -15%
CCc1ccc(C(=O)c2cnc3ccc(F)cc3c2S(=O)(=O)c2ccccc2)cc1 -7.86%
CCn1ccc2cc(S(=O)(=O)N3CCC(C(=O)NCCc4ccccc4Cl)CC3)ccc21 -12.2%
Cc1c2cnn(CC(=O)NCC(C)c3ccccc3)c(=O)c2c(C)n1Cc1cccc(Cl)c1 (configuration not stated) -9.4%
COc1ccccc1Cn1cc(C(=O)c2ccc(Cl)cc2)c(=O)c2ccccc21 -1.01%
Cc1cccc(S(=O)(=O)c2cn(Cc3ccccc3)c3cc(N4CCOCC4)c(F)cc3c2=O)c1 -21%
O=C(COc1ccccc1Cl)OCc1cc(=O)n2nc(C3CCCCC3)sc2n1 -17.7%
Cc1ccc(CNC(=O)c2ccc3c(c2)c(C)c(C)n3Cc2ccccc2)o1 -7.79%
Cc1cccc(N2CCN(C(=O)C3CCCN(S(=O)(=O)c4ccc5c(c4)oc(=O)n5C)C3)CC2)c1C (configuration not stated) -9.3%
CCCCOc1ccc(C(=O)NCCc2csc(-c3cccc(F)c3)n2)cc1 -14.6%
CCCCC/C(C=O)=C\c1ccccc1 -13.7%
CCCn1c(=O)c2sccc2n2c(CCCC(=O)NC3CCC(C)CC3)nnc12 (configuration not stated) -1.16%
CC(C)N=C(N)/N=C(\N)Nc1ccc(Cl)cc1 -19.7%
Cc1ccc(-n2ncc(C(=O)NCc3cccs3)c2C2CCN(C(=O)OC(C)(C)C)CC2)cc1 -8.67%
CCc1cccc2c(-c3ccccc3)nc(SCC(=O)Nc3ccccc3OC)nc12 11.8%
Clc1ccc2c(c1)C(N1CCNCC1)=Nc1ccccc1O2 -13.8%
COc1ccccc1NC(=O)C(C)Sc1nnc2ccc3ccccc3n12 (configuration not stated) -12.7%
Cc1ccc(CNC(=O)CN2C(=O)CCn3nc(-c4ccccc4)cc32)cc1 -20.5%
COc1ccc(OC)c(CCNC(=O)CCc2cn(Cc3cc(C)ccc3C)c3ccccc23)c1 -46.6%
O=C(O)CCc1nc(-c2ccccc2)c(-c2ccccc2)o1 -7.39%
O=C(Cn1c(=O)c2cccn2c2ccc(F)cc21)N1CCN(c2ccccc2F)CC1 -17.7%
Cc1ccc(Cl)cc1NS(=O)(=O)c1ccc2c(c1)NC(=O)CCS2 -14%
COc1ccc(Br)cc1CNC(=O)c1cnc2sc(N3CCCC3)nn2c1=O 8.95%
COc1ccc(C(=O)N(Cc2cc(OC)c(OC)c(OC)c2)c2ccccn2)cc1 -33.1%
O=C(Cn1c(=O)nc(-c2ccccc2)c2ccccc21)NCCc1ccc(Cl)cc1 -0.204%
CN1CCN(C(CNC(=O)c2ccccc2F)c2ccc3c(c2)OCO3)CC1 (configuration not stated) -6.11%
Fc1ccc(-n2ncc3c(NCCCn4ccnc4)ncnc32)cc1 3.27%
Cc1ccc(C)c(NC(=O)Cn2nnc(C(=O)NCc3ccccc3Cl)c2N)c1 -3.38%
COc1cccc(C2NC(=O)c3n[nH]c(-c4cccs4)c32)c1 (configuration not stated) -12.1%
Cc1cccc(-n2cc(-c3ccccc3)c3c(N4CCC(C)CC4)ncnc32)c1 -6.14%
CCCCN(CC)CCNC(=O)CCn1cnc2onc(-c3ccc(F)cc3)c2c1=O -15.2%
COc1ccc(NC(=O)c2sc3nc(-c4cc5ccc(OC)cc5oc4=O)[nH]c(=O)c3c2C)cc1 -18.7%
COc1cc(NC(=O)NCC2CCN(Cc3ccccc3Cl)CC2)cc(OC)c1OC -5.89%
COc1ccc(-c2cn3nc(N4CCCC(C(=O)Nc5cc(C)ccc5C)C4)sc3n2)cc1 (configuration not stated) 0.628%
Cc1cc2[nH]c(=O)c(=O)[nH]c2cc1S(=O)(=O)N1CCN(c2cccc(C(F)(F)F)c2)CC1 -2.38%
Cc1ccc2c(c1)C(=O)OC(C(=O)Nc1ncc(Cc3ccc(C(C)C)cc3)s1)C2 (configuration not stated) -17.9%
CCN(C(=O)CCS(=O)(=O)c1cc2[nH]c(=O)c(=O)[nH]c2cc1C)c1ccccc1 -1.15%
COc1ccc(-c2noc(N3CCC(C(=O)Nc4ccc(F)cc4Cl)CC3)n2)cc1 -2.84%
CCOc1ccc(C(c2c(O)cc(C)n(CCOC)c2=O)N2CCN(c3ccccc3)CC2)cc1 (configuration not stated) -14%
CCC1CCCCN1CCCNC(=O)c1[nH]c2ccccc2c1Sc1ccc(Cl)cc1 (configuration not stated) -5.37%
Cc1c2cnn(CC(=O)N3CCCCC3)c(=O)c2c(C)n1Cc1ccc(F)cc1 -13.1%
COc1cccc(CNC(=O)C(CC(C)C)NS(=O)(=O)c2ccc3c(c2)oc(=O)n3C)c1 (configuration not stated) -8.47%
CCC(Sc1nc2ncccc2[nH]1)C(=O)Nc1cccc(OC)c1 (configuration not stated) -8.71%
Cc1ccc(N(CC(=O)N2CCN(c3ccc(Cl)cc3)CC2)S(=O)(=O)c2c(C)nn(C)c2C)cc1 -11%
CCCN(CCC)C(=O)Cn1c(=O)n(-c2cccc(OC)c2)c(=O)c2c(C)c(C(=O)N(C)C)sc21 -12.5%
Cc1ccc2sc(N3CCN(C(=O)CCS(=O)(=O)c4ccc(Cl)cc4)CC3)nc2c1C -22.6%
O=C(NCCc1ccc(F)cc1)C(=O)NCC(c1cccs1)S(=O)(=O)c1ccc(F)cc1 (configuration not stated) -3.55%
Cc1ccc(-c2cn3nc(N4CCCC(C(=O)Nc5ccc(F)cc5)C4)sc3n2)cc1 (configuration not stated) 1.28%
COc1ccc(CNC(=O)Cn2ncc3c4ccccc4n(Cc4cccc(Cl)c4)c3c2=O)cc1 -10.7%
